# Source: PubChem BioAssay (NCATS)
# Inconclusive results, whose numbers are uncertain, are shown with a selection of clear calls. For some of these results: Potencies of inconclusive entries are left out as doubtful fits. The source made the active and inactive calls. Unless noted, the call rests on the fitted dose curve; in most records, active means well fitted curve in the direction sought with a large enough effect; inconclusive means small, poorly fitted or top-dose-only effect, or another doubt; inactive means no such curve, though single readings can be large; an effect the other way counts as inactive or inconclusive.
# Tests used:
# [1] = test system: Zika virus NS2B-NS3 protease (linked construct); experiment: Primary screen NINDS Rhodamine qHTS for Zika virus inhibitors (AID 1347160); further: nearly all actives have a fitted effect of over 55% in size; further: potency means the concentration at half of the fitted maximal effect; on activity change, negative = inhibition: on the % scale 0 is the no-effect control and ±100 the full control effect
# How it was run: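 Kinetic fluorescence (Ex 480 nm, Em 540 nm) over 15 min with 1.5 microM Rhodamine110 peptide and 25 nM linked protease.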
# [2] = Primary fluorescence-based thiol-reactive (MSTI) qHTS assay for identification of artifact compounds. (AID 1845221); further: potency means the concentration at half of the fitted maximal effect;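 further: thiol-reactive compounds lower the probe fluorescence signal; nearly all actives have a fitted effect of over 65% in size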
# How it was run: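 qHTS titration of compound; 4 uM MSTI, PBS pH 7.4, 2% DMSO; 1 h RT, dark; fluorescence 525/598 nm; normalized to Acetyl-MSTI and MSTI; 4-parameter Hill fit.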
# [3] = qHTS to identify inhibitors of the type 1 interferon - major histocompatibility complex class I in skeletal muscle: primary screen against the NCATS Mechanism Interrogation Plate v5.0 (MIPE) Libary (AID 1347411); settings: iHSKM cells + IFN-b, HiBiT-tagged MHC-I luminescence, 24 h; activity change, negative = inhibition: at 45.8 µM (top of the series); further: potency means the concentration at half of the fitted maximal effect; nearly all actives have a fitted effect of over 65% in size
# How it was run: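 Cells were genome-edited human myoblasts carrying a HiBit tag on endogenous HLA-B. They were treated with IFN-beta (4.0 ng/ml) and titrated compounds (top 46 uM) for 24 hrs before lytic HiBiT detection.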
# [4] = biological target: Glutathione peroxidase 1 (Homo sapiens) (UniProt P07203); experiment: Primary qHTS Assay for Inhibitors of Recombinant Selenoprotein Glutathione Peroxidase 1 (GPX1) (AID 1845191); settings: activity, negative = inhibition: at 48.8 µM (top of the series); further: nearly all actives have a fitted effect of over 65% in size; further: potency means the concentration at half of the fitted maximal effect; on activity, negative = inhibition: on the % scale 0 is the no-effect control and ±100 the full control effect
# Chain of UniProt P07203 (P07203 whole entry, looked up): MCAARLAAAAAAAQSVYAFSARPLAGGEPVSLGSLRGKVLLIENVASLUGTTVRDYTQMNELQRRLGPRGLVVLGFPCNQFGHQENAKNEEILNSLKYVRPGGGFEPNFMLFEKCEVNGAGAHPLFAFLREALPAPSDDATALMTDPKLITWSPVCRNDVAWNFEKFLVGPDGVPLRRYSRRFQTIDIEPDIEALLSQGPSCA
# How it was run: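 10 nM GPX1 + cpd, 30 min RT; start w/ 1 mM GSH, 0.5 mM cumene hydroperoxide, 0.5 mM NADPH, 100 nM GR, 0.01% BSA; buffer 50 mM Tris-HCl pH 7.5, 2 mM EDTA, 150 mM NaCl; Fl 340/450, 0 & 15 min.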
# [5] = Primary redox qHTS assay for identification of artifact compounds. (AID 1845223); further: potency means the concentration at half of the fitted maximal effect
# How it was run: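 Amplex Red (25 uM) and HRP (250 mU/mL) in HBSS, with compounds for 15 min, then 250 uM DTT for 30 min, room temperature, dark. Fluorescence 525/598 nm read; normalized to DMSO and 10 uM DA3003; Hill fit.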
# [6] = biological target: Cytochrome P450 2C9 (Homo sapiens) (UniProt P11712); experiment: Cytochrome P450 family 2 subfamily C member 9 (CYP2C9) small molecule antagonists: luciferase biochemical (cell-free) qHTS assay (AID 1645842; active means well fitted curve in the direction sought with a large enough effect in the repeat runs; inconclusive means weak or mixed curves; inactive means no such curve, though single readings can be large; an effect the other way counts as inactive or inconclusive; further: nearly all actives have a fitted effect of over 55% in size; further: potency means the concentration at half of the fitted maximal effect)
# Chain of UniProt P11712 (P11712 whole entry, looked up): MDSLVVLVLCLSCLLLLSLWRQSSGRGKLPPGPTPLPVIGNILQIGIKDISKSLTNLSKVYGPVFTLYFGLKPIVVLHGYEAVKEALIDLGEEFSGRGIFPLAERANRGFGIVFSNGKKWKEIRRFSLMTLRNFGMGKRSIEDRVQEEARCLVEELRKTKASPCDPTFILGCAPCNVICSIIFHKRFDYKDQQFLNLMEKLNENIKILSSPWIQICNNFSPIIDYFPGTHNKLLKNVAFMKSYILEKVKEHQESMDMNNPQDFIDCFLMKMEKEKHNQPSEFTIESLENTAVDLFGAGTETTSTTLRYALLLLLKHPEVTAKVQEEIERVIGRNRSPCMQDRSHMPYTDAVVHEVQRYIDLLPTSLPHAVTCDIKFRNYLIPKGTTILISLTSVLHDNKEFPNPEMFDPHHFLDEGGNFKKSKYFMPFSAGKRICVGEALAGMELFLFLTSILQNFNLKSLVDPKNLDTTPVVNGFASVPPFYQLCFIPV
# How it was run: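 Luminescence, after 20 min with luciferin detection reagent, reflected CYP2C9 turnover during a 1 h NADPH-driven reaction at 37C. Enzyme-substrate mix contained 0.4% bovine serum albumin and was preincubated with compound 10 min at room temperature.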
# [7] = biological target: Phospholipid hydroperoxide glutathione peroxidase GPX4 (Homo sapiens) (UniProt P36969); experiment: Primary qHTS Assay for Inhibitors of Recombinant Selenoprotein Glutathione Peroxidase 4 (GPX4) (AID 1845192); further: nearly all actives have a fitted effect of over 65% in size; further: potency means the concentration at half of the fitted maximal effect; on activity change, negative = inhibition: on the % scale 0 is the no-effect control and ±100 the full control effect
# Chain of UniProt P36969 (P36969 whole entry, looked up): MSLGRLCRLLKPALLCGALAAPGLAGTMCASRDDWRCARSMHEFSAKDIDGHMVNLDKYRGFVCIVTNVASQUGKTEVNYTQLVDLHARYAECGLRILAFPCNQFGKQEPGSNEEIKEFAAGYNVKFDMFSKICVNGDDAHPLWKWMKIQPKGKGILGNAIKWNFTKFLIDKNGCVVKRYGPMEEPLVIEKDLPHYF
# How it was run: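 NADPH consumption, followed by fluorescence at 340/450 nm between 0 and 15 min, reports GPX4 activity via coupled glutathione reductase (100 nM). Enzyme 200 nM was pre-exposed to compound 30 min; 0.5 mM cumene hydroperoxide and 1 mM GSH served as substrates.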
# [8] = biological target: Luciferin 4-monooxygenase (Photinus pyralis) (UniProt P08659); experiment: Primary firefly luciferase (FLuc) qHTS assay for identification of artifact compounds. (AID 1845220); further: nearly all actives have a fitted effect of over 60% in size; further: potency means the concentration at half of the fitted maximal effect;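 on activity change, negative = inhibition: plate controls were DMSO vehicle for no effect and no enzyme for full effect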
# How it was run: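 Cell-free, 1536-well qHTS. Buffer pH 7.6 with 0.01% Tween-20 and 0.05% BSA; 10 uM D-luciferin, 10 uM ATP; 10 nM P. pyralis luciferase; luminescence after 5 min.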
# [9] = biological target: Calcium and integrin-binding protein 1 (Homo sapiens) (UniProt Q99828); experiment: Primary qHTS for Identification of Calcium Integrin Binding Protein 1 (CIB1) Competitor (AID 1508620); further: potency means the concentration at half of the fitted maximal effect;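 on activity change, negative = inhibition: GST tagged CIB1 binding a fluorescein labelled alphaIIb integrin peptide tracer; top concentration of the series differs between compounds; on the % scale 0 is the no-effect control and ±100 the full control effect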
# Chain of UniProt Q99828 (Q99828 whole entry, looked up): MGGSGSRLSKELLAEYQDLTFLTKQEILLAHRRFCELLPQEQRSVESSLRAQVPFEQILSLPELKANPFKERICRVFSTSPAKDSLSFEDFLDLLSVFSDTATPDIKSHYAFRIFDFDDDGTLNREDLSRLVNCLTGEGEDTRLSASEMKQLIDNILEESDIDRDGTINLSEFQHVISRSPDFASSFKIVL
# How it was run: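 CIB1-GST (1 uM final) and compound incubated 15 min at room temperature before adding FITC-alphaIIb peptide tracer (100 nM final). Competition for binding read by fluorescence polarization (ex 480, em 540) after another 15 min at room temperature.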
# [10] = Primary qHTS for small molecule stabilizers of the endoplasmic reticulum resident proteome: Secreted ER Calcium Modulated Protein (SERCaMP) assay (AID 1508630); settings: SH-SY5Y GLuc-SERCaMP (Gaussia luciferase released on ER calcium loss) secretion, thapsigargin, luminescence; activity change, negative = inhibition: at 38.4 µM (top of the series); further: potency means the concentration at half of the fitted maximal effect
# How it was run: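 GLuc-SERCaMP-expressing SH-SY5Y cells, pretreated 16 h with compound, are challenged with thapsigargin to empty ER calcium stores; after 4 h, coelenterazine is added directly to the medium and luminescence is imaged.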
# [11] = qHTS assay to identify inhibitors of the type 1 interferon - major histocompatibility complex class I in skeletal muscle: Counter screen cell viability and HiBit confirmation (AID 1347412); settings: iHSKM muscle cells + IFN-b, HiBiT or CellTiter-Glo, 24 h; Viability; at 45.9 µM (top of the series); further: on the % scale 0 is the no-effect control and ±100 the full control effect; nearly all actives have a fitted effect of over 60% in size
# How it was run: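 Duplicate plates, pinned identically: one read for HiBiT-tagged endogenous HLA-B luminescence, the other for ATP-content viability via CellTiter Glo. Cells were genome-engineered human myoblasts given 4 ng/ml IFN-b; compounds 12-pt, 1:3 from 46 uM final; 24 hr exposure.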
# Tags describe the fitted curve by direction and shape.
smiles,measurement,setting,value
Cn1c(=O)c2c(ncn2Cc2ccc(C(C)(C)C)cc2)n(C)c1=O,Potency,[1],inactive
same,Potency,[2],inactive
CC(C)n1c(=O)c(C(=O)NC2CC3CCC(C2)N3C[C@@H](O)CN(C)S(C)(=O)=O)cc2ccccc21 (stereo partly drawn),Potency,[2],inactive
O=C(CCl)Nc1cccc(NC2=NS(=O)(=O)c3ccccc32)c1,Potency,[3],"inconclusive [inhibitor, partial curve]"
CC(C)(C)c1ccc(CNC(=S)NCc2ccc(NS(C)(=O)=O)c(F)c2)cc1,Potency,[4],active: 14.3 µM
same,Potency,[5],"inconclusive [activator, single point]"
CN(C)C(=O)Nc1cc(-c2ccccc2)ccc1N(C)C,Potency,[6],active: 15.1 µM
same,Potency,[7],"inconclusive [inhibitor, single point]"
same,Potency,[8],"inconclusive [inhibitor, partial curve, poor fit]"
same,Potency,[2],active: 2.38 µM
COc1cccc(CNC(=O)Nc2nc(-c3ccncc3)cs2)c1,Potency,[5],inactive
CC1CCC2C(C)(C)C(O)CCC2(C)C12Cc1c(O)cc3c(c1O2)CN(C(CCCN=C(N)N)C(=O)O)C3=O (stereo not drawn),Potency,[1],inactive
C[C@H]1CO[C@@H]2Cn3cc(C(=O)NCc4ccc(F)cc4F)c(=O)c(O)c3C(=O)N12,Potency,[2],"inconclusive [inhibitor, full curve]"
CC1CCN(C(c2ccc(F)cc2)c2ccc(C(C)C(=O)O)cc2-c2ccc(C(F)(F)F)cc2)CC1 (stereo not drawn),Potency,[1],active: 3.16 µM
same,Potency,[9],inactive
same,Potency,[2],inactive
C=CC(=O)Nc1cccc(Nc2nc(Nc3ccc(Oc4ccnc(C(=O)NC)c4)cc3)ncc2F)c1,Potency,[8],inactive
COc1ccccc1C(=O)Nc1cccc(NC(=O)c2cccc(C)c2)c1,Potency,[6],"inconclusive [inhibitor, single point]"
same,Potency,[8],"inconclusive [inhibitor, partial curve]"
COc1cc(O)ccc1OCCNCC(O)COc1cccc2[nH]c3ccccc3c12 (stereo not drawn),Potency,[2],"inconclusive [inhibitor, partial curve, poor fit]"
O=C(N[C@H]1CCC[C@H](CO)C1)C1CCN(c2nc3cc(Cl)c(-c4ccc(Cl)cc4)cc3o2)CC1,Potency,[2],inactive
COc1cc2nc(-c3cc(F)ccc3O)nc(N[C@@H]3CNC[C@H]3C(C)(C)O)c2cc1OC,Potency,[3],active: 3.7 µM
same,Potency,[5],"inconclusive [activator, partial curve, poor fit]"
CC[C@]1(O)CC2CN(CCc3c([nH]c4ccccc34)[C@@](C(=O)OC)(c3cc4c(cc3OC)N(C=O)[C@H]3[C@@](O)(C(=O)OC)[C@H](OC(C)=O)[C@]5(CC)C=CCN6CC[C@]43[C@@H]65)C2)C1 (stereo partly drawn),Potency,[5],"inconclusive [activator, partial curve, poor fit]"
CC(=O)N[C@H]1[C@H](O[C@H]2CC[C@@]3(C)C(CC[C@]4(C)C3CC=C3C5CC(C)(C)CC[C@]5(C(=O)O)C(O)C[C@]34C)C2(C)C)O[C@H](CO[C@@H]2O[C@H](C)[C@H](O)[C@H](O)[C@H]2O[C@@H]2OC[C@@H](O)[C@H](O)[C@H]2O)[C@@H](O)[C@@H]1O (stereo partly drawn),Potency,[5],"inconclusive [activator, full curve, poor fit]"
O=[N+]([O-])c1ccc(-c2nc(-c3ccc(F)cc3)c(-c3ccncc3)[nH]2)cc1,Potency,[3],"inconclusive [inhibitor, partial curve]"
same,Potency,[10],"inconclusive [inhibitor, single point]"
same,Potency,[2],"inconclusive [inhibitor, full curve]"
Cn1cc(-c2cnc3ccc4ccc(CS(=O)(=O)NCc5ccccn5)cc4c(=O)c3c2)cn1,Potency,[9],"inconclusive [inhibitor, full curve, poor fit]"
COc1ccccc1OCCN1CC(COc2cccc3[nH]c4ccccc4c23)OCC1=O (stereo not drawn),Potency,[2],inactive
Cc1nc2ccc(CN(C)c3ccc(C(=O)NC(CCC(=O)O)C(=O)O)s3)cc2c(=O)[nH]1 (stereo not drawn),Potency,[2],"inconclusive [inhibitor, partial curve]"
same,Potency,[5],inactive
OCC(Cc1ccccc1)Nc1nc(Oc2ccc3c(c2)CCC3)nc2c1ncn2Cc1ccc(-c2ccccc2)cc1 (stereo not drawn),Potency,[7],inactive
same,Potency,[2],"inconclusive [inhibitor, partial curve]"
N#Cc1ccc(O[C@@H]2c3ccccc3C[C@H]2N2CCC[C@@H](N)C2)c(Cl)c1,Potency,[6],"inconclusive [inhibitor, single point]"
O=c1ccc2ccc(OCCCCN3CCN(c4cccc5sccc45)CC3)cc2[nH]1,Potency,[6],"inconclusive [inhibitor, single point]"
same,Potency,[4],inactive
same,Potency,[2],"inconclusive [inhibitor, single point]"
CN(C)C(=O)C(=O)c1cn(C)c2cc(Cl)c(C(=O)N3CCC(Cc4ccc(F)cc4)CC3)cc12,Potency,[6],inactive
same,Potency,[5],"inconclusive [activator, partial curve, poor fit]"
CC(C)(O)C(=O)N1CCN(c2ccc(C(F)(F)F)c(C3=C(c4c[nH]c5ccccc45)C(=O)NC3=O)c2)CC1,Potency,[2],active: 3.36 µM
COC(=O)N1CCC(n2ncc3c(N4CCOCC4)nc(-c4ccc(NC(=O)Nc5ccc(CO)cc5)cc4)nc32)CC1,Potency,[5],"inconclusive [activator, partial curve, poor fit]"
COc1cc2ncnc(Oc3cccc(NC(=O)Nc4cc(C(C)(C)C(F)(F)F)on4)c3)c2cc1OC,"activity change, negative = inhibition",[11],inactive: -21.3%
